From the supplement of paper PMC12217912
This is one part of the list. Sequences were assembled here from the parent chain. Inactive controls read about 0.05.

B1: TEV protease; numbered along this chain (parent)
chain: MGESLFKGPRDYNPISSSICHLTNESDGHTTSLYGIGFGPFIITNKHLFRRNNGTLVVQSLHGVFKVKDTTTLQQHLVDGRDMIIIRMPKDFPPFPQKLKFREPQREERICLVTTNFQTKSMSSMVSDTSCTFPSGDGIFWKHWIQTKDGQCGSPLVSTRDGFIVGIHSASNFTNTNNYFTSVPKNFMELLTNQEAQQWVSGWRLNADSVLWGGHKVFMVKPEEPFQPVKEATQL

Variants of: B1
Test: raw area under fraction-flipped curve 0-4 h after induction (AUC4h, not background-subtracted), DNA-recorder readout of cleavage of the substrate (dimensionless); higher = more cleavage of the substrate by the protease variant
Conditions: temperature: 34 °C; time window: 0-4 h after rhamnose induction
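Further: Bxb1 expression induced with 0.2% (w/v) L-rhamnose at OD600 near 0.5, cultures sampled hourly, flipped fraction per protease–substrate barcode pair counted by paired-end Illumina sequencing.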

Variant | area with substrate ENLYCQS | area with substrate ENLYDQS | area with substrate ENLYEQS | area with substrate ENLYGQS | area with substrate ENLYHQS | area with substrate ENLYIQS | area with substrate ENLYKQS | area with substrate ENLYLQS | area with substrate ENLYNQS | area with substrate ENLYPQS | area with substrate ENLYRQS | area with substrate ENLYSQS | area with substrate ENLYWQS | area with substrate ENLYYQS | area with substrate ENLYVQS | area with substrate ENLYQQS | area with substrate ENLYMQS | area with substrate ENLYTQS
MGESLFKGPRDYNPISSSICHLTNESDGHTTSLYGIGFGPFIITNKHLFRRNNGTLVVQSLHGVFKVKDTTTLQQHLVDGRDMIIIRMPKDFPPFPQKLKFREPQREERICLVTTNFQTKSMSSMVSDTSCTFPSGDGIFWKHWIQTKDGQCGSPLVSTRDGFIVGIHSASNFTNTNNYFTSVPKNFMELLTNQEYQQWVSGWRLNADSVLWGGHKVFMVKPEEPFQPVKEATQL [A196Y] | 0.115 | 0.0722 | 0.0599 | 0.0672 | 0.0736 | 0.105 | 0.058 | 0.0896 | 0.0687 | 0.0722 | 0.0691 | 0.079 | 0.0928 | 0.0751 |  |  |  | 
MGESLFKGPRDYNPISSSICHLTNESDGHTTSLYGIGFGPFIITNKHLFRRNNGTLVVQSLHGVFKVKDTTTLQQHLVDGRDMIIIRMPKDFPPFPQKLKFREPQREERICLVTTNFQTKSMSSMVSDTSCTFPSGDGIFWKHWIQTKDGQCGSPLVSTRDGFIVGIHSASNFTNTNNYFTSVPKNFMELLTNQEASQWVSGWRLNADSVLWGGHKVFMVKPEEPFQPVKEATQL [Q197S] | 0.0673 | 0.0536 | 0.0583 | 0.0547 | 0.076 | 0.0987 | 0.0569 | 0.0796 | 0.0787 | 0.072 |  |  |  | 0.06 | 0.103 |  |  | 
MGESLFKGPRDYNPISSSICHLTNESDGHTTSLYGIGFGPFIITNKHLFRRNNGTLVVQSLHGVFKVKDTTTLQQHLVDGRDMIIIRMPKDFPPFPQKLKFREPQREERICLVTTNFQTKSMSSMVSDTSCTFPSGDGIFWKHWIQTKDGQCGSPLVSTRDGFIVGIHSASNFTNTNNYFTSVPKNFMELLTNQEAQQWVVGWRLNADSVLWGGHKVFMVKPEEPFQPVKEATQL [S201V] | 0.085 | 0.0495 |  | 0.0651 | 0.0735 |  | 0.0498 | 0.0743 |  | 0.0358 | 0.0586 | 0.0779 | 0.0756 | 0.0291 |  | 0.0545 |  | 
MGESLFKGPRDYNPISSSICHLTNESDGHTTSLYGIGFGPFIITNKHLFRRNNGTLVVQSLHGVFKVKDTTTLQQHLVDGRDMIIIRMPKDFPPFPQKLKFREPQREERICLVTTNFQTKSMSSMVSDTSCTFPSGDGIFWKHWIQTKDGQCGSPLVSTRDGFIVGIHSASNFTNTNNYFTSVPKNFMELLTNQEAQQWVSGWRRNADSVLWGGHKVFMVKPEEPFQPVKEATQL [L205R] | 0.0811 | 0.0491 | 0.0614 | 0.0605 | 0.0722 |  |  |  | 0.0791 | 0.0547 | 0.0437 | 0.0626 |  | 0.0517 |  | 0.0641 | 0.0455 | 
MGESLFKGPRDYNPISSSICHLTNESDGHTTSLYGIGFGPFIITNKHLFRRNNGTLVVQSLHGVFKVKDTTTLQQHLVDGRDMIIIRMPKDFPPFPQKLKFREPQREERICLVTTNFQTKSMSSMVSDTSCTFPSGDGIFWKHWIQTKDGQCGSPLVSTRDGFIVGIHSASNFTNTNNYFTSVPKNFMELLTNQEAQQWVSGWRLEADSVLWGGHKVFMVKPEEPFQPVKEATQL [N206E] | 0.0959 | 0.0653 | 0.0642 | 0.0754 | 0.0706 |  | 0.0621 |  | 0.0751 | 0.0852 | 0.0605 | 0.0778 | 0.0819 | 0.0576 | 0.134 |  | 0.0958 | 
MGESLFKGPRDYNPISSSICHLTNESDGHTTSLYGIGFGPFIITNKHLFRRNNGTLVVQSLHGVFKVKDTTTLQQHLVDGRDMIIIRMPKDFPPFPQKLKFREPQREERICLVTTNFQTKSMSSMVSDTSCTFPSGDGIFWKHWIQTKDGQCGSPLVSTRDGFIVGIHSASNFTNTNNYFTSVPKNFMELLTNQEAQQWVSGWRLNAGSVLWGGHKVFMVKPEEPFQPVKEATQL [D208G] | 0.0687 | 0.0594 | 0.0646 | 0.0651 | 0.0767 | 0.1 | 0.0245 |  | 0.0694 |  | 0.0571 |  | 0.0753 | 0.0568 |  | 0.103 | 0.0808 | 
MGESLFKGPRDYNPISSSICHLTNESDGHTTSLYGIGFGPFIITNKHLFRRNNGTLVVQSLHGVFKVKDTTTLQQHLVDGRDMIIIRMPKDFPPFPQKLKFREPQREERICLVTTNFQTKSMSSMVSDTSCTFPSGDGIFWKHWIQTKDGQCGSPLVSTRDGFIVGIHSASNFTNTNNYFTSVPKNFMELLTNQEAQQWVSGWRLNADSVLWGGHWVFMVKPEEPFQPVKEATQL [K216W] | 0.0759 |  | 0.0344 | 0.0665 | 0.0781 |  | 0.0659 | 0.0658 | 0.0728 | 0.0711 | 0.071 | 0.0554 | 0.0848 | 0.049 | 0.0916 | 0.0535 | 0.0747 | 0.0356
MGESLFKGPRDYNPISSSICHLTNESDGHTTSLYGIGFGPFIITNKHLFRRNNGTLVVQSLHGVFKVKDTTTLQQHLVDGRDMIIIRMPKDFPPFPQKLKFREPQREERICLVTTNFQTKSMSSMVSDTSCTFPSGDGIFWKHWIQTKDGQCGSPLVSTRDGFIVGIHSASNFTNTNNYFTSVPKNFMELLTNQEAQQWVSGWRLNADSVLWGGHKVFKVKPEEPFQPVKEATQL [M219K] | 0.0558 | 0.0576 |  | 0.0722 | 0.058 |  | 0.0567 | 0.0433 | 0.0387 |  | 0.0378 | 0.062 |  | 0.0467 | 0.0658 | 0.0541 | 0.0599 | 0.0512
